These results are taken from the supplement of paper PMC12230231.

± gives the standard deviation of the averaged measurements. Restriction of a single-cycle SIVsab GFP reporter by TRIM5α v1-loop variants in CRFK cells. Human variants: read share among cells still uninfected after two challenges over input, higher = gained restriction. Rhesus variants: share among infected cells over input, higher = lost restriction. Reporter dose not given per row. No active / inactive call per row; the paper calls a change when both replicates lie above its controls (mean + 2 SD of stop or wild-type variants, or the top frameshift score). Residues outside the varied loop are taken from Swiss-Prot. The paper reads the human single-substitution scores as noise; they and the rhesus combinations repeat poorly (rank correlation 0.3 to 0.4), indel scores repeat only for the top variants, rhesus substitutions well (0.9).

The data set concerns SIVsab (simian immunodeficiency virus of sabaeus monkeys), single-cycle GFP reporter, in CRFK cells. As to the kind of experiment: enrichment among uninfected cells over input (fold); higher = stronger restriction. The note with it: library: human / rhesus combinations. The method, then:
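Pools of CRFK cells expressing variants of the TRIM5α v1 loop were challenged with the single-cycle reporter, sorted by GFP and sequenced; mean of two replicates.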
For the sequence “MASGILVNVKEEVTCPICLELLTQPLSLDCGHSFCQACLTANHKKSMLDKGESSCPVCRISYQPENIRPNRHVANIVEKLREVKLSPEGQKVDHCARHGEKLLLFCQEDGKVICWLCERSQEHRGHHTFLTEEVAREYQVKLQAALEMLRQKQQEAEELEADIREEKASWKTQIQYDKTNVLADFEQLRDILDWEESNELQNLEKEEEDILKSLTNSETEMVQQTQSLRELISDLEHRLQGSVMELLQGVDGVIKRTENVTLKKPETFPKNQRRVFRAPDLKGMLEVFRELTDVRRYWVDVTVAPNNISCAVISEDKRQVSSPKPQIIYGAPGTLYTFQSLTNFNYCTGILGSQSITSGKHYWEVDVSKKTAWILGVCAGFQPDAMCNIEKNENYQPKYGYWVIGLEEGVKCSAFQDSSFHTPSVPFIVPLSVIICPDRVGVFLDYEACTVSFFNITNHGFLIYKFSHCSFSQPVFPYLNPRKCGVPMTLCSPSS [human TRIM5α, 330-340 = GAPGTLYTFQSLT]”, the enrichment was 0.206 ± 0.16. In the case of “MASGILVNVKEEVTCPICLELLTQPLSLDCGHSFCQACLTANHKKSMLDKGESSCPVCRISYQPENIRPNRHVANIVEKLREVKLSPEGQKVDHCARHGEKLLLFCQEDGKVICWLCERSQEHRGHHTFLTEEVAREYQVKLQAALEMLRQKQQEAEELEADIREEKASWKTQIQYDKTNVLADFEQLRDILDWEESNELQNLEKEEEDILKSLTNSETEMVQQTQSLRELISDLEHRLQGSVMELLQGVDGVIKRTENVTLKKPETFPKNQRRVFRAPDLKGMLEVFRELTDVRRYWVDVTVAPNNISCAVISEDKRQVSSPKPQIIYGAPGTLYTFQSLVNFNYCTGILGSQSITSGKHYWEVDVSKKTAWILGVCAGFQPDAMCNIEKNENYQPKYGYWVIGLEEGVKCSAFQDSSFHTPSVPFIVPLSVIICPDRVGVFLDYEACTVSFFNITNHGFLIYKFSHCSFSQPVFPYLNPRKCGVPMTLCSPSS [human TRIM5α, 330-340 = GAPGTLYTFQSLV]” it was 0.231 ± 0.11; in that of “MASGILVNVKEEVTCPICLELLTQPLSLDCGHSFCQACLTANHKKSMLDKGESSCPVCRISYQPENIRPNRHVANIVEKLREVKLSPEGQKVDHCARHGEKLLLFCQEDGKVICWLCERSQEHRGHHTFLTEEVAREYQVKLQAALEMLRQKQQEAEELEADIREEKASWKTQIQYDKTNVLADFEQLRDILDWEESNELQNLEKEEEDILKSLTNSETEMVQQTQSLRELISDLEHRLQGSVMELLQGVDGVIKRTENVTLKKPETFPKNQRRVFRAPDLKGMLEVFRELTDVRRYWVDVTVAPNNISCAVISEDKRQVSSPKPQIIYGAPGTLYTFQTFTNFNYCTGILGSQSITSGKHYWEVDVSKKTAWILGVCAGFQPDAMCNIEKNENYQPKYGYWVIGLEEGVKCSAFQDSSFHTPSVPFIVPLSVIICPDRVGVFLDYEACTVSFFNITNHGFLIYKFSHCSFSQPVFPYLNPRKCGVPMTLCSPSS [human TRIM5α, 330-340 = GAPGTLYTFQTFT]”, 0.116 ± 0.021; in that of “MASGILVNVKEEVTCPICLELLTQPLSLDCGHSFCQACLTANHKKSMLDKGESSCPVCRISYQPENIRPNRHVANIVEKLREVKLSPEGQKVDHCARHGEKLLLFCQEDGKVICWLCERSQEHRGHHTFLTEEVAREYQVKLQAALEMLRQKQQEAEELEADIREEKASWKTQIQYDKTNVLADFEQLRDILDWEESNELQNLEKEEEDILKSLTNSETEMVQQTQSLRELISDLEHRLQGSVMELLQGVDGVIKRTENVTLKKPETFPKNQRRVFRAPDLKGMLEVFRELTDVRRYWVDVTVAPNNISCAVISEDKRQVSSPKPQIIYGAPGTLYTFQTFVNFNYCTGILGSQSITSGKHYWEVDVSKKTAWILGVCAGFQPDAMCNIEKNENYQPKYGYWVIGLEEGVKCSAFQDSSFHTPSVPFIVPLSVIICPDRVGVFLDYEACTVSFFNITNHGFLIYKFSHCSFSQPVFPYLNPRKCGVPMTLCSPSS [human TRIM5α, 330-340 = GAPGTLYTFQTFV]”, 0.0328 ± 0.045. Take “MASGILVNVKEEVTCPICLELLTQPLSLDCGHSFCQACLTANHKKSMLDKGESSCPVCRISYQPENIRPNRHVANIVEKLREVKLSPEGQKVDHCARHGEKLLLFCQEDGKVICWLCERSQEHRGHHTFLTEEVAREYQVKLQAALEMLRQKQQEAEELEADIREEKASWKTQIQYDKTNVLADFEQLRDILDWEESNELQNLEKEEEDILKSLTNSETEMVQQTQSLRELISDLEHRLQGSVMELLQGVDGVIKRTENVTLKKPETFPKNQRRVFRAPDLKGMLEVFRELTDVRRYWVDVTVAPNNISCAVISEDKRQVSSPKPQIIYGAPGTLYTFQTLTNFNYCTGILGSQSITSGKHYWEVDVSKKTAWILGVCAGFQPDAMCNIEKNENYQPKYGYWVIGLEEGVKCSAFQDSSFHTPSVPFIVPLSVIICPDRVGVFLDYEACTVSFFNITNHGFLIYKFSHCSFSQPVFPYLNPRKCGVPMTLCSPSS [human TRIM5α, 330-340 = GAPGTLYTFQTLT]”: the enrichment was determined as 0.244 ± 0.34.

“MASGILVNVKEEVTCPICLELLTQPLSLDCGHSFCQACLTANHKKSMLDKGESSCPVCRISYQPENIRPNRHVANIVEKLREVKLSPEGQKVDHCARHGEKLLLFCQEDGKVICWLCERSQEHRGHHTFLTEEVAREYQVKLQAALEMLRQKQQEAEELEADIREEKASWKTQIQYDKTNVLADFEQLRDILDWEESNELQNLEKEEEDILKSLTNSETEMVQQTQSLRELISDLEHRLQGSVMELLQGVDGVIKRTENVTLKKPETFPKNQRRVFRAPDLKGMLEVFRELTDVRRYWVDVTVAPNNISCAVISEDKRQVSSPKPQIIYGAPGTLYTFQTLVNFNYCTGILGSQSITSGKHYWEVDVSKKTAWILGVCAGFQPDAMCNIEKNENYQPKYGYWVIGLEEGVKCSAFQDSSFHTPSVPFIVPLSVIICPDRVGVFLDYEACTVSFFNITNHGFLIYKFSHCSFSQPVFPYLNPRKCGVPMTLCSPSS [human TRIM5α, 330-340 = GAPGTLYTFQTLV]”: the enrichment came to 0.0562 ± 0.032. In the case of “MASGILVNVKEEVTCPICLELLTQPLSLDCGHSFCQACLTANHKKSMLDKGESSCPVCRISYQPENIRPNRHVANIVEKLREVKLSPEGQKVDHCARHGEKLLLFCQEDGKVICWLCERSQEHRGHHTFLTEEVAREYQVKLQAALEMLRQKQQEAEELEADIREEKASWKTQIQYDKTNVLADFEQLRDILDWEESNELQNLEKEEEDILKSLTNSETEMVQQTQSLRELISDLEHRLQGSVMELLQGVDGVIKRTENVTLKKPETFPKNQRRVFRAPDLKGMLEVFRELTDVRRYWVDVTVAPNNISCAVISEDKRQVSSPKPQIIYGAPGTRFPSFTNFNYCTGILGSQSITSGKHYWEVDVSKKTAWILGVCAGFQPDAMCNIEKNENYQPKYGYWVIGLEEGVKCSAFQDSSFHTPSVPFIVPLSVIICPDRVGVFLDYEACTVSFFNITNHGFLIYKFSHCSFSQPVFPYLNPRKCGVPMTLCSPSS [human TRIM5α, 330-340 = GAPGTRFPSFT]” it was 0.00125 ± 5.5e-05; in that of “MASGILVNVKEEVTCPICLELLTQPLSLDCGHSFCQACLTANHKKSMLDKGESSCPVCRISYQPENIRPNRHVANIVEKLREVKLSPEGQKVDHCARHGEKLLLFCQEDGKVICWLCERSQEHRGHHTFLTEEVAREYQVKLQAALEMLRQKQQEAEELEADIREEKASWKTQIQYDKTNVLADFEQLRDILDWEESNELQNLEKEEEDILKSLTNSETEMVQQTQSLRELISDLEHRLQGSVMELLQGVDGVIKRTENVTLKKPETFPKNQRRVFRAPDLKGMLEVFRELTDVRRYWVDVTVAPNNISCAVISEDKRQVSSPKPQIIYGAPGTRFPSFVNFNYCTGILGSQSITSGKHYWEVDVSKKTAWILGVCAGFQPDAMCNIEKNENYQPKYGYWVIGLEEGVKCSAFQDSSFHTPSVPFIVPLSVIICPDRVGVFLDYEACTVSFFNITNHGFLIYKFSHCSFSQPVFPYLNPRKCGVPMTLCSPSS [human TRIM5α, 330-340 = GAPGTRFPSFV]”, 0.001016 ± 5e-06; in that of “MASGILVNVKEEVTCPICLELLTQPLSLDCGHSFCQACLTANHKKSMLDKGESSCPVCRISYQPENIRPNRHVANIVEKLREVKLSPEGQKVDHCARHGEKLLLFCQEDGKVICWLCERSQEHRGHHTFLTEEVAREYQVKLQAALEMLRQKQQEAEELEADIREEKASWKTQIQYDKTNVLADFEQLRDILDWEESNELQNLEKEEEDILKSLTNSETEMVQQTQSLRELISDLEHRLQGSVMELLQGVDGVIKRTENVTLKKPETFPKNQRRVFRAPDLKGMLEVFRELTDVRRYWVDVTVAPNNISCAVISEDKRQVSSPKPQIIYGAPGTRFPSLTNFNYCTGILGSQSITSGKHYWEVDVSKKTAWILGVCAGFQPDAMCNIEKNENYQPKYGYWVIGLEEGVKCSAFQDSSFHTPSVPFIVPLSVIICPDRVGVFLDYEACTVSFFNITNHGFLIYKFSHCSFSQPVFPYLNPRKCGVPMTLCSPSS [human TRIM5α, 330-340 = GAPGTRFPSLT]”, 0.295 ± 0.41. The result for “MASGILVNVKEEVTCPICLELLTQPLSLDCGHSFCQACLTANHKKSMLDKGESSCPVCRISYQPENIRPNRHVANIVEKLREVKLSPEGQKVDHCARHGEKLLLFCQEDGKVICWLCERSQEHRGHHTFLTEEVAREYQVKLQAALEMLRQKQQEAEELEADIREEKASWKTQIQYDKTNVLADFEQLRDILDWEESNELQNLEKEEEDILKSLTNSETEMVQQTQSLRELISDLEHRLQGSVMELLQGVDGVIKRTENVTLKKPETFPKNQRRVFRAPDLKGMLEVFRELTDVRRYWVDVTVAPNNISCAVISEDKRQVSSPKPQIIYGAPGTRFPSLVNFNYCTGILGSQSITSGKHYWEVDVSKKTAWILGVCAGFQPDAMCNIEKNENYQPKYGYWVIGLEEGVKCSAFQDSSFHTPSVPFIVPLSVIICPDRVGVFLDYEACTVSFFNITNHGFLIYKFSHCSFSQPVFPYLNPRKCGVPMTLCSPSS [human TRIM5α, 330-340 = GAPGTRFPSLV]” reads 0.0993 ± 0.14. The result for “MASGILVNVKEEVTCPICLELLTQPLSLDCGHSFCQACLTANHKKSMLDKGESSCPVCRISYQPENIRPNRHVANIVEKLREVKLSPEGQKVDHCARHGEKLLLFCQEDGKVICWLCERSQEHRGHHTFLTEEVAREYQVKLQAALEMLRQKQQEAEELEADIREEKASWKTQIQYDKTNVLADFEQLRDILDWEESNELQNLEKEEEDILKSLTNSETEMVQQTQSLRELISDLEHRLQGSVMELLQGVDGVIKRTENVTLKKPETFPKNQRRVFRAPDLKGMLEVFRELTDVRRYWVDVTVAPNNISCAVISEDKRQVSSPKPQIIYGAPGTRFPTFVNFNYCTGILGSQSITSGKHYWEVDVSKKTAWILGVCAGFQPDAMCNIEKNENYQPKYGYWVIGLEEGVKCSAFQDSSFHTPSVPFIVPLSVIICPDRVGVFLDYEACTVSFFNITNHGFLIYKFSHCSFSQPVFPYLNPRKCGVPMTLCSPSS [human TRIM5α, 330-340 = GAPGTRFPTFV]” reads 0.0931 ± 0.13. Regarding “MASGILVNVKEEVTCPICLELLTQPLSLDCGHSFCQACLTANHKKSMLDKGESSCPVCRISYQPENIRPNRHVANIVEKLREVKLSPEGQKVDHCARHGEKLLLFCQEDGKVICWLCERSQEHRGHHTFLTEEVAREYQVKLQAALEMLRQKQQEAEELEADIREEKASWKTQIQYDKTNVLADFEQLRDILDWEESNELQNLEKEEEDILKSLTNSETEMVQQTQSLRELISDLEHRLQGSVMELLQGVDGVIKRTENVTLKKPETFPKNQRRVFRAPDLKGMLEVFRELTDVRRYWVDVTVAPNNISCAVISEDKRQVSSPKPQIIYGAPGTRFPTLTNFNYCTGILGSQSITSGKHYWEVDVSKKTAWILGVCAGFQPDAMCNIEKNENYQPKYGYWVIGLEEGVKCSAFQDSSFHTPSVPFIVPLSVIICPDRVGVFLDYEACTVSFFNITNHGFLIYKFSHCSFSQPVFPYLNPRKCGVPMTLCSPSS [human TRIM5α, 330-340 = GAPGTRFPTLT]”, the enrichment stood at 1.11 ± 1.6.
